About 65 (0.1%) of roughly 45,000 compounds were called active. The call rests on the fitted dose curve; in most records, active means well fitted activation curve with a large enough effect; inconclusive means small, poorly fitted or top-dose-only effect; inactive means no such curve, though single readings can be large or run the other way. Some of the results follow.
Target: Galactocerebrosidase (Homo sapiens) (UniProt P54803)
Assay: A Novel Cell-Based Assay to Identify Small Molecules for B -Galactocerebrosidase; further: 0% is about no effect; nearly all actives have a fitted effect of over 65% in size
Conditions: 145M-Twi-hGALC-G270D cells (Twitcher mouse brain line with human GALC G270D), HMU-beta-Gal fluorescence, 48 h; series mostly up to 57.5 µM; activation: at the top concentration
Summary of the method: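 Brain-derived Twitcher mouse 145M-Twi cells stably expressing human GALC-G270D or wild-type GALC, treated live, then residual GALC activity read by fluorescence of HMU-b-Gal substrate (0.1 mM final) in citrate-phosphate buffer pH 5.2 with sodium taurocholate. Signal increase indicates enhancement.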

Sequence of UniProt P54803 (P54803 whole entry, looked up): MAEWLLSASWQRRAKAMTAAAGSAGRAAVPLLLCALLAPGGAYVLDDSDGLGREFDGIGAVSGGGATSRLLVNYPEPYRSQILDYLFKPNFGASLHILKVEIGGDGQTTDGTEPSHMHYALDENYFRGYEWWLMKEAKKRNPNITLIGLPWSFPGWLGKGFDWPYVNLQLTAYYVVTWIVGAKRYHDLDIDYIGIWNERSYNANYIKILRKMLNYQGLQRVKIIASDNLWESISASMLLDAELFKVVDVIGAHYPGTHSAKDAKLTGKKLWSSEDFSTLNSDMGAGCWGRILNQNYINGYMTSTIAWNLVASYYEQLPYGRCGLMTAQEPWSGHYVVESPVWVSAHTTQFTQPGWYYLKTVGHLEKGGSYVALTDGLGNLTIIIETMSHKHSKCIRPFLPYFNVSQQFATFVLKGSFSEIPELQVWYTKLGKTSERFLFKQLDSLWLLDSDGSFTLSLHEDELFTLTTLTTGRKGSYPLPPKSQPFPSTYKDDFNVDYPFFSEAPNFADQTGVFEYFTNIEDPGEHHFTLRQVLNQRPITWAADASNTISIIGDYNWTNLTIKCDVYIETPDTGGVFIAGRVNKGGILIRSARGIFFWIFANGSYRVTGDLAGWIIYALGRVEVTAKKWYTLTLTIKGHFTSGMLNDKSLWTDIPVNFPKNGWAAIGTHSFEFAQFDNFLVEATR

activation, inactive:
CC(C(=O)O)c1ccc2c(c1)Cc1cccnc1O2 (configuration not stated) -12.3%
CCc1ccc2oc(C(=O)Nc3nonc3CC)c(C)c2c1 -25.1%
Cc1cc(C)cc(NS(=O)(=O)c2ccc3c(c2)CCCN3C(=O)C2CCC2)c1 12.1%
COc1ccc(-n2ncc(C(=O)N3CCc4ccccc4C3)c2C2CCN(C(=O)OC(C)(C)C)CC2)cc1 4%
Cc1oc2ncn(C)c(=O)c2c1C(=O)NCCCN1CCCC(C)C1 (configuration not stated) -1.6%
O=C(Nc1ccc(Br)cc1F)c1ncoc1-c1ccco1 -5.79%
C[C@H]1COc2c(C3(N)CC3)c(F)cc3c(=O)c(C(=O)O)cn1c23 -26.8%
O=C(CN1C(=O)COc2ccc(S(=O)(=O)N3CCOCC3)cc21)N1CCN(c2ccccc2)CC1 -11.3%
COCCCNC(=O)c1ccc2c(=O)n(Cc3ccc(OC)cc3)c(=O)[nH]c2c1 -8.95%
COc1ccc(CNC(=O)CN(c2cc(C)cc(C)c2)S(=O)(=O)c2c(C)[nH]c(=O)[nH]c2=O)cc1 -6.09%
COc1ccc(-c2cc(C(F)(F)F)n3nc(C(=O)NCC45CC6CC(CC(C6)C4)C5)cc3n2)cc1 -8.8%
CCOc1cc(-c2nc(-c3ccc(Br)cc3)no2)cc(OCC)c1OCC 2.24%
O=C(COc1ccccc1)N(Cc1cccnc1)c1nc2ccc(F)cc2s1 -13.9%
Cc1cccc(CN2CCN(CC(=O)NCc3ccc(Cl)cc3)C2=O)c1 -1.88%
COc1ccc(C2=C(C)C(=O)N(Cc3ccc(C(=O)NCc4ccc(C)cc4)cc3)S2(=O)=O)cc1 0.0198%
CC(C)(C)C(=O)Oc1ccc(S(=O)(=O)Nc2ccccc2C(=O)NCC(=O)O)cc1 -16.8%
CCOC(=O)c1c(NC(=O)c2cc(C(C)C)on2)sc(C)c1C -6.92%
Cc1ccc(S(=O)(=O)C(CNC(=O)c2ccccc2F)c2cccs2)cc1 (configuration not stated) -7.59%
Cc1cccc(CSc2nc3c(c(=O)[nH]2)C(c2cccc(O)c2)CC(=O)N3)c1 (configuration not stated) -12.4%
CSc1ccc2c(c1)C(N1CCN(C)CC1)Cc1ccccc1S2 (configuration not stated) -7.6%
Cc1nc(-c2ccc(C)c(S(=O)(=O)N3CCC(C(=O)NCc4ccc(Cl)cc4)CC3)c2)no1 5.87%
COc1ccc(CCNC(=O)C2CCCN(c3nc4c(C)cc(C)cc4s3)C2)cc1OC (configuration not stated) -19.4%
O=c1c(N2CCc3ccccc3C2)csc2ccccc12 -13%
O=C(NCCc1ccccc1)c1ccc2c(c1)N(Cc1ccccc1F)C(=O)c1ccccc1S2=O (configuration not stated) -6.25%
CC(=O)Nc1ccc(NC(=O)c2oc3ccc4c(c3c2C)C(=O)CC(C)(C)O4)cc1 -12.6%
COc1ccc(NC(=O)c2ccc3c(=O)n4nc(Nc5cccc(Cl)c5C)sc4nc3c2)cc1 -4.82%
CC(=O)N1CCCc2cc(S(=O)(=O)N3CCCC(C(=O)Nc4cc(Cl)ccc4C)C3)ccc21 (configuration not stated) -21.6%
C=Cc1ccc(Cn2c(C(=O)O)c(CNCc3ccccc3)c3ccc(C)cc32)cc1 -13.1%
CC1=C(C(=O)Nc2cccnc2)C(c2ccccc2)n2nc(-c3ccc(O)cc3)nc2N1 (configuration not stated) -6.52%
Cc1ccc(C2CCN(C(=O)c3cnn(-c4ccc(C)cc4)c3C3CCN(C(=O)OC(C)(C)C)CC3)C2)cc1 (configuration not stated) -5.68%
Cc1ccc(-c2ccc(=O)n(CC(=O)Nc3cccc(C#N)c3)n2)cc1 -18%
O=C(C1CCCN(S(=O)(=O)c2ccc(Br)s2)C1)N1CCN(c2ccccc2)CC1 (configuration not stated) -8.76%
CNC(=O)C1CCC(Cn2c(=O)c3sccc3n(CC(=O)NCc3ccc(F)cc3)c2=O)CC1 (configuration not stated) -11.5%
CCOc1ccc(-c2nc3c(c(SCC(=O)N4CCCCC4)n2)Cc2ccccc2O3)cc1 -15.8%
CCOc1ccccc1NS(=O)(=O)c1ccc(-c2cnc(C3CC3)o2)cc1 -30.4%
CCCCCCCCCCCCCCCCN -5.68%
Cc1ccc(-c2csc(=Nc3ccc(F)cc3)n2Cc2ccc3c(c2)OCO3)cc1C -36.7%
Cc1c(Cl)cccc1NC(=O)c1ncn(-c2ccccc2)n1 -4.21%
COc1cccc(NC(=O)CC(C)S(=O)(=O)c2ccc3c(c2)NC(=O)CO3)c1 (configuration not stated) -16.8%
Cc1ccc(NS(=O)(=O)c2ccc3c(c2)CCCN3C(=O)C2CCC2)cc1Cl -3.68%
CCOC(=O)C(=O)CCCCCCl -14.6%
Nc1c(C(=O)Nc2ccc(C(=O)O)cc2)sc2nc3c(cc12)CCCC3 -26%
Cc1cccc(C(=O)Nc2nnc(S(=O)(=O)N(C)Cc3ccco3)s2)c1 -25.8%
COc1ccc(CCNC(=O)CSc2nc(-c3ccc(F)cc3)cc(C(F)(F)F)n2)cc1OC 1.95%
Cc1nn(-c2ccccc2)c2sc(C(=O)Nc3ccccc3Br)cc12 -9%
CCCN1C[C@H](CSC)C[C@@H]2c3cccc4[nH]cc(c34)C[C@H]21 -13.1%
Cc1ccc(NC(=O)CN2C(=O)C3(SCC(=O)N3c3cccc(Cl)c3)c3ccccc32)cc1C (configuration not stated) -17.4%
O=C1OC2(c3ccccc31)c1cc(I)c(O)c(I)c1Oc1c2cc(I)c(O)c1I -12.5%
CC(=O)Nc1ccccc1 -12.7%
Cc1nc2nncn2c(NCc2ccc(F)cc2)c1C -17.2%
COc1cc(OC)cc(C(=O)Nc2ccc(S(=O)(=O)Nc3ncccn3)cc2)c1 -2.77%
COCCNc1nc2c(S(=O)(=O)c3ccc(C)c(C)c3)nnn2c2ccc(Cl)cc12 0.717%
CCc1noc(-c2ccc(N3CCCCC3C)c([N+](=O)[O-])c2)n1 (configuration not stated) -1.68%
O=C(Nc1nnc(S(=O)(=O)Nc2ccccc2)s1)c1ccccc1Cl -17.6%
Cc1ccc(NC(=O)CCS(=O)(=O)c2cc3c4c(c2)CCN4C(=O)CC3)c(C)c1 -6.18%
O=C(NCc1ccc2c(c1)CCN2C(=O)c1ccc(Cl)cc1)c1cccc(F)c1 -18.9%
CCCCN(C)C(=O)C1CCC(CNS(=O)(=O)c2ccc(Cl)cc2)CC1 (configuration not stated) -21.1%
CCC(Oc1ccccc1)C(=O)Nc1cc(-c2ccccc2OC)nn1-c1ccccc1 (configuration not stated) -10.2%
CCOC(=O)c1c(S(=O)(=O)NCC(=O)NCc2cccc(C)c2)c(C)n(C)c1C 2.98%
Cc1ccc(-c2nc3c(c(SCC(=O)Nc4ccccc4Cl)n2)Cc2c(CO)cnc(C)c2O3)cc1 -4.04%
Cc1ccc(CS(=O)(=O)c2ncc(Cl)c(C(=O)Nc3nc4ccc(F)cc4s3)n2)cc1 -18.3%
Cc1cccc(N2CCN(C(=O)CCc3c(C)nc4c(c3C)c(=O)n(C)c(=O)n4C)CC2)c1C -4.47%

Source: PubChem BioAssay AID1159614 (National Center for Advancing Translational Sciences (NCATS), 2016)
